Assay results: the supplement of paper PMC10126150
Sequences with one replicate were seen in a single cluster, so their values are uncertain.

System: ATP
Test: switch fluorescence ratio, 500 uM ATP over buffer (Cy3 cluster intensity, sum of 5 cycles each) (fold (ratio)); higher = stronger signal-on switching upon ATP binding; sequences stand for … in TCGTCGGCAGCGTCAGATGTGTATAAGAGACAGTTTTTTTTTTTTTTTTTTTTTTTTT…TC
Conditions: aptamer strand: ATP DNA aptamer (quencher-CACCTGGGGGAGTATTGCGGAGGAAGG + anchor), 100 nM annealed; ATP concentration: 500 uM; one replicate
How it was run: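 Between each of five buffer/ATP cycles, the flow-cell was stripped with NaOH and re-annealed. Each cycle imaged Cy3-labelled switching-strand clusters, annealed to 100 nM quencher-labelled ATP aptamer on a modified Illumina MiSeq flow-cell, first in selection buffer and then after 15 min with 500 uM ATP at 22 °C. The fluorescence ratio is summed target-cycle over summed buffer-cycle Cy3 intensity per cluster, averaged per switch-domain sequence, with clusters outside 100-1000 RFU excluded.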
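Also: ATP exposure 15 min at 22 °C before imaging.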

Row | Sequence | switch fluorescence ratio
1 | TTCGATATGG | 1.07
2 | TTCGATTAAC | 1.02
3 | TTCGATTAGC | 1.05
4 | TTCGCACTAG | 1.3
5 | TTCGCATTGC | 1.38
6 | TTCGCCAAAA | 1.09
7 | TTCGCCACAT | 1.03
8 | TTCGCCATCT | 0.978
9 | TTCGCGAGAG | 1.59
10 | TTCGCGGGAA | 1.06
11 | TTCGCTGGAG | 1.01
12 | TTCGCTTCAG | 0.987
13 | TTCGGAAACG | 0.947
14 | TTCGGAAAGC | 1.09
15 | TTCGGAAATT | 1.04
16 | TTCGGAAGCG | 1.01
17 | TTCGGAAGTG | 0.975
18 | TTCGGACGCT | 1.47
19 | TTCGGAGC | 1.27
20 | TTCGGAGGTA | 0.993
21 | TTCGGCCCGG | 0.997
22 | TTCGGCCTAG | 1.01
23 | TTCGGCGTT | 1.04
24 | TTCGGCTTTA | 0.974
25 | TTCGGCTTTG | 1.03
26 | TTCGGGCC | 0.988

Row | Sequence | switch fluorescence ratio
27 | TTCGGGCCCA | 0.981
28 | TTCGGGGCTA | 1.02
29 | TTCGGGGTG | 0.963
30 | TTCGGTCGTC | 1.06
31 | TTCGGTGTAC | 1.01
32 | TTCGTAAACC | 1.06
33 | TTCGTACGTT | 1.01
34 | TTCGTCGGTT | 1.01
35 | TTCGTCTAGA | 0.985
36 | TTCGTCTGAA | 0.965
37 | TTCGTCTTTG | 0.956
38 | TTCGTGAGAG | 0.997
39 | TTCGTGTCTC | 0.956
40 | TTCGTTCTAT | 0.997
41 | TTCGTTTGT | 0.983
42 | TTCTA | 1.01
43 | TTCTAAATTG | 1.1
44 | TTCTAAGATC | 1.38
45 | TTCTACTGTG | 0.987
46 | TTCTACTTCG | 0.996
47 | TTCTACTTCT | 1.04
48 | TTCTAGAATG | 0.971
49 | TTCTAGTTTT | 0.979
50 | TTCTATGAAG | 0.941
51 | TTCTATGCTT | 1.03
52 | TTCTCATCGC | 0.991

Row | Sequence | switch fluorescence ratio
53 | TTCTCGGAAG | 1.01
54 | TTCTCGGCGG | 0.974
55 | TTCTCTAACA | 1.05
56 | TTCTCTAATT | 1.07
57 | TTCTCTCCGA | 1.53
58 | TTCTGACACA | 1.09
59 | TTCTGACT | 0.957
60 | TTCTGAGCAC | 1.53
61 | TTCTGAGTGT | 0.972
62 | TTCTGCAACC | 2.64
63 | TTCTGCGTTT | 0.989
64 | TTCTGGCGTT | 1.07
65 | TTCTGGTAAG | 0.995
66 | TTCTGTCCTT | 1.01
67 | TTCTGTCTGA | 1.01
68 | TTCTGTGAGG | 0.985
69 | TTCTGTTTGC | 0.975
70 | TTCTTAGTTG | 0.953
71 | TTCTTCCCTC | 1.12
72 | TTCTTCGTTT | 0.969
73 | TTCTTCTTCG | 1.1
74 | TTCTTGAATG | 1.03
75 | TTCTTGGAAC | 1.03
76 | TTCTTGGCAG | 0.994
77 | TTCTTGGCTG | 1.02
78 | TTCTTGTGGT | 1.04

Row | Sequence | switch fluorescence ratio
79 | TTCTTTCAGC | 1.02
80 | TTCTTTCTG | 0.962
81 | TTCTTTGCGG | 1.03
82 | TTCTTTGGTG | 0.991
83 | TTGAAAAT | 1.01
84 | TTGAAATTAT | 1.03
85 | TTGAACGTAG | 0.977
86 | TTGAACTTA | 1.02
87 | TTGAAGAGCT | 0.934
88 | TTGAAGATTT | 0.986
89 | TTGAAGCGTG | 0.995
90 | TTGAAGGAAT | 0.99
91 | TTGAAGTAAC | 0.999
92 | TTGAATGCTA | 0.992
93 | TTGAATTGAT | 1
94 | TTGACAGTTT | 1.01
95 | TTGACGCCGG | 1.03
96 | TTGACGCGAC | 3.53
97 | TTGACGTCCG | 0.945
98 | TTGACGTTC | 1.06
99 | TTGAGAAATG | 1
100 | TTGAGACGAC | 1.02
101 | TTGAGACGAG | 0.978
